Measurements reported in PubChem BioAssay AID504937 (National Center for Advancing Translational Sciences (NCATS), 2011).
The campaign covered roughly 340,000 compounds. About 20 (0.006%) were called active. Inconclusive means that the source gave no clear call. Such entries were picked first, then a sample of the others. The call rests on the fitted dose curve; in most records, active means well fitted inhibition curve with a large enough effect; inconclusive means small, poorly fitted or top-dose-only effect; inactive means no such curve, though single readings can be large or run the other way. Potencies beside an inconclusive call are fits to weak or partial responses and may not hold up.

target: Sphingomyelin phosphodiesterase (Homo sapiens) (UniProt P17405); assay: Inhibitors of Secretory Acid Sphingomyelinase (S-ASM): qHTS; details: placental ASM, HMU-PC fluorogenic substrate (series up to 57.5 µM), 60 min; activity change, negative = inhibition: at the top concentration
Chain of UniProt P17405 (P17405 whole entry, looked up): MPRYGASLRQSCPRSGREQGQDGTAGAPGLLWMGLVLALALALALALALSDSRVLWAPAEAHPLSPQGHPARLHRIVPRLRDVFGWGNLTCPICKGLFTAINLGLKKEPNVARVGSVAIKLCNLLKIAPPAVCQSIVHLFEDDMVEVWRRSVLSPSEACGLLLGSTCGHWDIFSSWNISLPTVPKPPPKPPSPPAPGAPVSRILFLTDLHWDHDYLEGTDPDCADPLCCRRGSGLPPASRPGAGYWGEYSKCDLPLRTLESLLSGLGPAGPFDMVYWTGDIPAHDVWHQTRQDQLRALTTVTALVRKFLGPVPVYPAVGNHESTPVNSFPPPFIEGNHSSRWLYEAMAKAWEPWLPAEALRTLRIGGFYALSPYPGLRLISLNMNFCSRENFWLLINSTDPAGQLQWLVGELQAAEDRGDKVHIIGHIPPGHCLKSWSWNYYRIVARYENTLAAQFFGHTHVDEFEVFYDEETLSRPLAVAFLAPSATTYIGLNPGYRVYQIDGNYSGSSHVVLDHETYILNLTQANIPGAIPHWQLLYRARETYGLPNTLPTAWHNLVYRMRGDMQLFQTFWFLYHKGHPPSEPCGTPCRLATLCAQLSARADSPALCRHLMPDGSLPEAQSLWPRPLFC
Description: Atherosclerosis is the underlying process for cardiovascular disease and thus is a major contributor to disease burden in the population. […] Thus, selective small molecule inhibitors of S-ASM should block LDL modification and reduce aortic LDL retention and may serve as new agents for the treatment of atherosclerosis. In a collaboration between National Heart, Lung, and Blood Institute and the NCGC a high-throughput amenable screen was developed to identify potent and selective small molecule inhibitors of S-ASM. This enzymatic, fluorescent screen uses an ASM enzyme preparation derived from human placenta and was tested against the NIH Molecular Libraries Small Molecule Repository (MLSMR). NIH Chemical Genomics Center [NCGC] NIH Molecular Libraries Probe Centers Network [MLPCN] MLPCN Grant: MH093173-01 Assay Submitter (PI): Alan Remaley, National Heart, Lung, and Blood Institute and Wei Zhen, NIH Chemical Genomics Center
Two microliters of ASM enzyme (1:150 dilution from stock) are dispensed in 1536-well plate. 23 nL of compound and control are pinned into assay plate using the Kalypsys pintool. The plates are then incubated for 10 minutes at ambient room temperature. Then, 2 uL of the flurogenic substrate, HMU-PC0, (9 uM final) are added to the plate. An incubation for 60 minutes takes place at 37 masculineC. After that, 4 uL of stop solution is added to raise the pH to 10 to end the kinetic reaction. Plate is read on ViewLux, with detection set at Ex = 386 (10) nm and Em = 447 (10) nm.
Potency means the concentration at half of the fitted maximal effect; tags describe the fitted curve by direction and shape.

SMILES | Potency | activity change, negative = inhibition
COc1ccc(/C=C2\CN(Cc3ccccc3)C/C(=C\c3ccc(OC)c(O)c3)C2=O)cc1O | inconclusive: 89.1 µM [inhibitor, single point] | –
COc1ccc(/C=N/NC(=O)c2cc(C34CC5CC(CC(C5)C3)C4)[nH]n2)cc1O | inconclusive: 89.1 µM [inhibitor, partial curve] | –
Cc1cccc(C)c1N=Nc1c(C)cc(O)cc1C | inconclusive: 200 µM [inhibitor, partial curve, poor fit] | –
CCCCCCCCCCCCCCCCCCNc1ccn(C2OC(COP(=O)(O)OCC3OC(n4cc(F)c(=O)[nH]c4=O)CC3O)C(O)C2O)c(=O)n1 (configuration not stated) | inconclusive: 50.1 µM [inhibitor, single point] | –
Cn1cc(/C=C(\C(=O)O)C(C(=O)O)=C2CCCCC2)c2ccccc21 | – | inactive: 6.92%
CC(=O)CCc1ccc(OCCCOc2cccc3cccnc23)cc1 | – | inactive: -3.32%
C[C@@]12C(=O)Nc3cc(F)ccc3C(=O)N1[C@H]1c3cc(Br)ccc3OC[C@@H]1[C@@H]2c1ccccc1 | inconclusive: 112 µM [inhibitor, partial curve, poor fit] | –
COc1cc(/C=C2\SC(=S)N(Nc3ncc(C(F)(F)F)cc3Cl)C2=O)ccc1O | inconclusive: 39.8 µM [inhibitor, partial curve] | –
COc1ccccc1NS(=O)(=O)c1cccc(NC(=O)c2cncc(Br)c2)c1 | inconclusive: 1120 µM [inhibitor, partial curve, poor fit] | –
O=[N+]([O-])c1ccc(NC(=S)N2CCN(c3ccc(F)cc3)CC2)cc1 | inconclusive: 224 µM [inhibitor, partial curve, poor fit] | –
Nc1cc(N)cc(C(=O)Nc2ccc3c(c2)C(=O)NC3=O)c1 | – | inactive: 14.5%
Clc1ccc(OCCCNCc2ccccc2)c2ccccc12 | inconclusive: 200 µM [inhibitor, partial curve, poor fit] | –
COc1ccc(N2CCN(C3=CC(=O)N(c4cccc(Cl)c4)C3=O)CC2)cc1 | inconclusive: 7940 µM [inhibitor, partial curve, poor fit] | –
CCOc1ccc(-c2nc(C#N)c(NCc3ccc4c(c3)OCO4)o2)cc1 | inconclusive: 1260 µM [inhibitor, partial curve, poor fit] | –
O=C(c1cc(COc2ccc(F)cc2Cl)on1)N1CCCCCCC1 | – | inactive: -1.69%
C[C@]12C=C[C@H](O)CC1=CCC1C2CC[C@@]2(C)C1CCC21OCCO1 (some centres not stated) | – | inactive: -3.6%
O=[N+]([O-])c1ccccc1NCc1c(O)ccc2ccccc12 | inconclusive: 70.8 µM [inhibitor, single point] | –
